Assay results: the supplement of paper PMC12217912
The list shows a part of the results. Sequences were assembled here from the parent chain. Inactive controls read about 0.05.

B1: TEV protease; numbered along this chain (parent)
chain: MGESLFKGPRDYNPISSSICHLTNESDGHTTSLYGIGFGPFIITNKHLFRRNNGTLVVQSLHGVFKVKDTTTLQQHLVDGRDMIIIRMPKDFPPFPQKLKFREPQREERICLVTTNFQTKSMSSMVSDTSCTFPSGDGIFWKHWIQTKDGQCGSPLVSTRDGFIVGIHSASNFTNTNNYFTSVPKNFMELLTNQEAQQWVSGWRLNADSVLWGGHKVFMVKPEEPFQPVKEATQL

Variants of: B1
Experiment: raw area under fraction-flipped curve 0-4 h after induction (AUC4h, not background-subtracted), DNA-recorder readout of cleavage of the substrate (dimensionless); higher = more cleavage of the substrate by the protease variant
Details: temperature: 34 °C; time window: 0-4 h after rhamnose induction
Method: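 In vivo DNA recorder in E. coli TOP10(DE3) ΔrhaA at 34 °C. Each TEVp single-site mutant (parent TEVp 0) is paired with a single-site variant of the 7-mer TEVs (canonical ENLYFQ|S). The substrate sits between flexible linkers in a Bxb1-sfGFP-TEVs-SsrA fusion, so cleavage stabilises Bxb1 and speeds flipping of a recombination array, read by NGS. The value is the raw area under the fraction-flipped curve over 0-4 h after rhamnose induction (AUC4h), with ≥20 reads per time point. It is not background-subtracted; inactive controls average about 0.047.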
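Note: Bxb1 expression induced with 0.2% (w/v) L-rhamnose at OD600 near 0.5, cultures sampled hourly, flipped fraction per protease–substrate barcode pair counted by paired-end Illumina sequencing.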

Variant	area with substrate ENLYFAS	area with substrate ENLYFCS	area with substrate ENLYFHS	area with substrate ENLYFIS	area with substrate ENLYFPS	area with substrate ENLYFVS	area with substrate ENLYFWS	area with substrate ENLYFDS	area with substrate ENLYFFS	area with substrate ENLYFKS	area with substrate ENLYFLS	area with substrate ENLYFMS	area with substrate ENLYFSS	area with substrate ENLYFTS	area with substrate ENLYFES	area with substrate ENLYFGS	area with substrate ENLYFNS	area with substrate ENLYFRS	area with substrate ENLYFYS
N206A	0.0509																		
M88S	0.0517	0.0554	0.0538	0.0522	0.0576	0.0578	0.0543												
L5Y	0.0574			0.0623	0.0644	0.0364		0.0462	0.0651	0.0622	0.0521	0.0655	0.0536	0.0621					
S123F	0.0607	0.0575	0.0807		0.0611	0.0737	0.0747	0.0569				0.074		0.0594	0.0624	0.0573	0.0692	0.0606	0.0506
P93Q	0.0574	0.0528	0.0713	0.0632	0.0244		0.0601	0.0627	0.0733		0.0442	0.0744				0.0726			0.0653
P93R	0.076		0.0534						0.0627						0.0755			0.0602	
P228D	0.0541	0.0584		0.0743	0.0466			0.0657	0.0535				0.0503	0.075				0.0704	
S182L	0.0451	0.0561		0.0458	0.0539		0.0516	0.0549	0.0545					0.0535					
T233C	0.0712		0.0625	0.0636	0.0682	0.0817		0.0596	0.0624					0.0748	0.0521			0.0628	0.0497
W141Y	0.0731	0.0543		0.0203	0.0556		0.0388		0.0635		0.0428	0.0823			0.0578				
W141V	0.0607	0.0524	0.0605	0.0561	0.0412	0.0572	0.0333		0.0695	0.0635		0.0707			0.0661		0.0702	0.0576	
V217G	0.0558	0.0582	0.0505	0.0478	0.0713	0.0126	0.0626	0.0588	0.0711				0.0644	0.0623	0.0537				
E107F	0.0242	0.0569	0.0623	0.0526	0.0557				0.0743				0.0522	0.054	0.0594				
S26M	0.0668	0.0598	0.0593	0.0562	0.0637	0.0635	0.0594	0.0526	0.063	0.0719		0.0685	0.056	0.0666	0.049		0.0634	0.0679	0.0511
Q197P	0.0642	0.0532		0.0497	0.0616		0.0589		0.0625	0.0685	0.0538	0.0767		0.0681	0.0527		0.0752	0.0556	
Q197N	0.0618	0.0315		0.0413			0.0734		0.0743								0.0574		

Variant	area with substrate ENLYFAS	area with substrate ENLYFCS	area with substrate ENLYFHS	area with substrate ENLYFIS	area with substrate ENLYFPS	area with substrate ENLYFVS	area with substrate ENLYFWS	area with substrate ENLYFDS	area with substrate ENLYFFS	area with substrate ENLYFKS	area with substrate ENLYFLS	area with substrate ENLYFMS	area with substrate ENLYFSS	area with substrate ENLYFTS	area with substrate ENLYFES	area with substrate ENLYFGS	area with substrate ENLYFNS	area with substrate ENLYFRS	area with substrate ENLYFYS
Q197E	0.0665			0.0571	0.0654	0.05		0.0459	0.0616	0.0724	0.0357		0.0617	0.0474	0.0722		0.0606	0.0504	
L205R	0.0632			0.0538	0.0611		0.0587					0.0667			0.0616	0.0713	0.0603		
W199V	0.0643	0.0526	0.0535	0.0537				0.0496	0.0692						0.0561		0.0598		
N53E	0.0351	0.0558		0.0549									0.0619	0.0562		0.118	0.0663	0.0658	0.0477
Q59T	0.0384	0.0607	0.0775	0.059	0.0621				0.0776						0.0684	0.0588	0.0604	0.0503	0.0588
T72Y	0.0566		0.0529	0.051	0.0606		0.0538	0.0474	0.0762	0.0688	0.0613	0.0767	0.0618	0.0488	0.0605	0.0566			0.0552
P155R	0.0478	0.0466	0.0505	0.0498	0.0631	0.0479			0.0529			0.0618		0.0497	0.0425		0.0556	0.049	0.0521
S127V	0.0672	0.0564	0.0528	0.0654	0.059	0.0628		0.0528	0.0696			0.0704		0.0662	0.06	0.0646	0.0595	0.067	0.0684
K148D	0.0549			0.0491	0.0753	0.0649	0.0666	0.0612	0.0967	0.0767	0.0549	0.0627	0.0524				0.0561		0.0726
S121C	0.0668	0.0644		0.0536		0.0566	0.0524	0.0627		0.065					0.0522	0.0631	0.0651		
V67H	0.0635	0.0542	0.0478	0.0656	0.0495	0.061			0.0569		0.0569	0.0614		0.0567	0.0626	0.047	0.0515		
V67Q	0.0685		0.0576	0.0765	0.0067	0.0616		0.0765	0.0695		0.0682	0.0535	0.112	0.0324			0.0648	0.0596	
S130L	0.0586		0.0583	0.0626	0.0562		0.0644	0.0277		0.0676	0.0543	0.0749	0.0553	0.0479	0.0597	0.0549		0.049	0.0449
K185W	0.0543	0.0671	0.0552	0.0589	0.0599	0.046	0.0579	0.057	0.065	0.088	0.0649	0.0694	0.0322	0.0736	0.0616	0.0919	0.0553	0.0666	0.0539
G202E	0.0513	0.059	0.0312	0.0604	0.0626	0.0569	0.0572		0.0743			0.0697			0.0597	0.0638	0.0508	0.0518	0.0575
